Screen size: about 150,000 compounds; about 6,500 (4.3%) were called active. Inconclusive means that the source gave no clear call. Such entries were picked first, then a sample of the others. Calls come from the whole dose curve; as a rule, active = well fitted inhibition curve with a large enough effect (not every such curve was filed as active); inconclusive = small, poorly fitted or top-dose-only effect, or another doubt; inactive = no such curve, though single readings can be large or run the other way. Potencies of inconclusive entries are left out as doubtful fits.
target: 15-hydroxyprostaglandin dehydrogenase [NAD(+)] (Homo sapiens) (UniProt P15428); experiment: qHTS Assay for Inhibitors of HPGD (15-Hydroxyprostaglandin Dehydrogenase); conditions: purified HPGD, NADH fluorescence kinetic, PGE2 substrate; activity change, negative = inhibition: hits give low values
Sequence of UniProt P15428 (P15428 whole entry, looked up): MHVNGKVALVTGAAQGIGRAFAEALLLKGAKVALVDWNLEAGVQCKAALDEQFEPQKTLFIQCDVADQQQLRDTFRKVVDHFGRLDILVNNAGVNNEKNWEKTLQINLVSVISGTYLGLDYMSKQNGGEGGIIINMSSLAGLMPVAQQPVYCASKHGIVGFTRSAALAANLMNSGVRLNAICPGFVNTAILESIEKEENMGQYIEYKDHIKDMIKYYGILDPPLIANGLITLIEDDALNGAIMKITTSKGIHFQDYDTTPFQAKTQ
Outline: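 20 nM HPGD preincubated 15 min at room temperature with compound in 50 mM Tris-HCl pH 8, 0.01% Tween 20. Started with 1 mM NAD+ and 30 uM prostaglandin E2; NADH fluorescence (360/450 nm) read 5 times over 30-s intervals, last minus first.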
% is set by controls: 0 for no effect and ±100 for the full control effect; potency is the fitted concentration of half-maximal effect; tags give direction and shape of the fitted curve.

Row | SMILES | Potency | activity change, negative = inhibition
1 | CNC(=S)N(Cc1cccs1)Cc1cc2cc(OC)ccc2[nH]c1=O | inconclusive [inhibitor, partial curve, poor fit] | –
2 | COc1ccc(C[C@H](C)NC[C@@H](O)c2ccc(O)c(NC=O)c2)cc1 | – | inactive: -1.86%
3 | O=C(O)CSc1nc2ccccc2o1 | – | inactive: -15.9%
4 | Cc1ccccc1N/N=C1\CCCNC1=O | active: 22.4 µM | –
5 | Fc1ccc2nc(Nc3nc4cc5c(cc4s3)OCO5)sc2c1 | inconclusive [inhibitor, partial curve] | –
6 | Cc1ccc2nc(NC(=O)c3ccc(Cl)s3)sc2c1 | inconclusive [inhibitor, partial curve] | –
7 | CN(Cc1nc(-c2ccccn2)no1)S(=O)(=O)c1ccc(Cl)cc1 | active: 25.1 µM | –
8 | O=C(C(Sc1ccccc1)c1ccccc1)N1CCN(c2ccccc2F)CC1 (stereo unspecified) | – | inactive: -10.9%
9 | Cc1nnc(SCC(=O)NC(C)(C)C)n1C1CCCCC1 | – | inactive: -8.06%
10 | Cc1ccccc1Nc1nnc(SCC(=O)c2cc3ccccc3o2)s1 | inconclusive [inhibitor, single point] | –
11 | O=C(Cc1ccccc1)NNC(=O)c1cnccn1 | – | inactive: 2.15%
12 | Fc1cccc2sc(Nc3nc4cc5c(cc4s3)OCCO5)nc12 | inconclusive [inhibitor, partial curve] | –
13 | CCNc1ncc2nc(-c3cc(F)cc(F)c3)c(=O)n(Cc3cccs3)c2n1 | inconclusive [inhibitor, single point] | –
14 | O=S(=O)(Nc1ccc2c(c1)oc1ccccc12)N1CCCC1 | inconclusive [inhibitor, single point] | –
15 | COc1ccc(N=C2SC(CC(=O)Nc3ccccc3OC)C(=O)N2Cc2ccco2)cc1 (stereo unspecified) | inconclusive [inhibitor, partial curve, poor fit] | –
16 | Cn1c(SCc2cc(=O)n3cc(Br)ccc3n2)nnc1C1COc2ccccc2O1 (stereo unspecified) | inconclusive [inhibitor, partial curve] | –
17 | CCOC(=O)c1sc(C)c2c1NC(c1ccc(Cl)cc1)NC2=O (stereo unspecified) | inconclusive [inhibitor, partial curve] | –
18 | CC1Cc2ccccc2N1c1ncnc2c1nnn2Cc1ccccc1Cl (stereo unspecified) | inconclusive [inhibitor, partial curve] | –
19 | COc1cccc(CSc2nc3ccccc3cc2C=O)c1 | active: 12.6 µM | –
20 | Cc1cc(F)ccc1S(=O)(=O)Nc1ccccc1C(=O)Nc1ncn[nH]1 | inconclusive [inhibitor, partial curve] | –
21 | CCCCC(=O)Nc1cc(N(C)C)nc2ccccc12 | inconclusive [inhibitor, partial curve] | –
22 | CCCC(=O)Nc1nc2ccc(NC(=O)c3ccc(Br)o3)cc2s1 | inconclusive [inhibitor, single point] | –
23 | Cn1c(=O)c(C(=O)c2ccccc2)nc2ccccc21 | – | inactive: -21.1%
24 | COc1c2ccc(C(=O)NCCCCc3ccccc3)cc2nn1C | inconclusive [inhibitor, partial curve] | –

Row | SMILES | Potency | activity change, negative = inhibition
25 | COc1cc(-c2nc(-c3ccccc3)c(-c3cccs3)[nH]2)cc(OC)c1O | inconclusive [inhibitor, partial curve] | –
26 | Cc1nc(N2CCN(C)CC2)c2sc(=S)n(C)c2n1 | inconclusive [inhibitor, partial curve] | –
27 | O=C(Nc1cccc(F)c1)c1ccc2c(c1)OCO2 | inconclusive [inhibitor, partial curve] | –
28 | C/C=C/C(=O)C[C@H]1CC[C@@H](C)[C@@H](CCO)O1 | – | inactive: -2.2%
29 | N#Cc1cc(-c2ccc(Cl)cc2)cnc1Sc1ccc(F)cc1 | inconclusive [inhibitor, single point] | –
30 | COc1cc(OC)nc(NC(=O)CN2CCN(c3ccc(F)cc3)CC2)n1 | – | inactive: -9.36%
31 | COc1ccc(-c2nnc(NC(=O)c3ccc(S(=O)(=O)N4COCC4(C)C)cc3)o2)cc1 | – | inactive: -10.1%
32 | COC(=O)C(C)c1ccc(C(=O)c2cccs2)cc1 (stereo unspecified) | active: 14.1 µM | –
33 | CC1=CN2C(=N)/C(=C/c3cn(CCCOc4ccccc4C)c4ccccc34)C(=O)N=C2S1 | inconclusive [inhibitor, partial curve, poor fit] | –
34 | CN(C)c1ccc(C(=O)NCC2CCCO2)cc1 (stereo unspecified) | active: 14.1 µM | –
35 | FC(F)(F)c1cc(-c2ccccc2)nc2ncnn12 | inconclusive [inhibitor, partial curve] | –
36 | Cc1cccc(Oc2ncnc3oc(-c4ccccc4)cc23)c1C | inconclusive [inhibitor, single point] | –
37 | O=C(CSc1ncn(-c2ccccc2)n1)Nc1nc2c(s1)CCCC2 | inconclusive [inhibitor, single point] | –
38 | CC1(C)Cc2c(C#N)c(N3CCN(C(=O)c4ccco4)CC3)nc(-c3ccco3)c2CS1 | inconclusive [inhibitor, full curve] | –
39 | N#C/C(=C\c1ccc(Sc2nc3ccccc3[nH]2)o1)c1ccccc1 | inconclusive [inhibitor, partial curve] | –
40 | COc1cc(NC(=O)c2ccco2)c(OC)cc1NC(=O)CSc1ncc(-c2ccc(F)cc2)[nH]1 | inconclusive [inhibitor, partial curve, poor fit] | –
41 | COc1cccc(-c2ccc(=O)n(CC(=O)Nc3ccc(C(=O)N4CCCC4)cc3)n2)c1 | active: 12.6 µM | –
42 | Cc1[nH]c2ccccc2c1Cc1n[nH]c(=S)n1C | active: 35.5 µM | –
43 | CCC(N=c1cc(-c2ccc(OC)cc2)oc2ccc(C)cc12)C(=O)O (stereo unspecified) | inconclusive [inhibitor, partial curve] | –
44 | CCOC(=O)c1c(C)oc2c1c(CN1CCN(C(=O)OCC)CC1)c(O)c1ccccc12 | – | inactive: -15.5%
45 | O=C(NCC1CCCO1)C1CC(=O)N(C2CCCCCC2)C1 (stereo unspecified) | inconclusive [inhibitor, single point] | –
46 | Cc1nc(NCc2ccccc2)c2nc(-c3ccccc3)n(CCN3CCCC3)c2n1 | inconclusive [inhibitor, partial curve] | –
47 | O=C(CCc1nc(-c2ccccc2)no1)NCc1ccco1 | inconclusive [inhibitor, single point] | –
48 | O=C(C1CCN(c2ccc(N3CCOCC3)nn2)CC1)N1CCc2ccccc2C1 | inconclusive [inhibitor, partial curve] | –

Row | SMILES | Potency | activity change, negative = inhibition
49 | Cc1cc(C)n2nc(N)c(N=Nc3ccc4c(c3)OCO4)c2n1 | inconclusive [inhibitor, single point] | –
50 | O=C(Nc1ccc2oc(-c3ccncc3)nc2c1)c1ccccc1F | inconclusive [inhibitor, partial curve] | –
51 | CN1C(=O)/C(=C/c2ccccc2OCc2ccccc2)NC1=S | active: 11.2 µM | –
52 | NC(=O)c1nsc(C(=O)N(CC(=O)NCc2ccc3c(c2)OCO3)C2CCCC2)c1N | inconclusive [inhibitor, partial curve] | –
53 | CC1(C)CC(C)(O)P(=O)(c2ccccc2)O1 (stereo unspecified) | – | inactive: -5.03%
54 | O=C(COc1ncnc2ccccc12)NCCCN1CCCC1=O | – | inactive: -26%
55 | O=c1cc(CO)oc(C(Nc2ccccn2)c2ccsc2)c1O (stereo unspecified) | inconclusive [inhibitor, single point] | –
56 | S=C(Nc1ccc(N2CCOCC2)cc1)Nc1ccc2nc(-c3ccco3)c(-c3ccco3)nc2c1 | inconclusive [inhibitor, partial curve] | –
57 | COCCCNC(=O)/C=C/c1cccc(Cl)c1 | active: 28.2 µM | –
58 | Cc1cccn2c(=O)c3cc(C#N)c(=NC(=O)c4ccccc4)n(Cc4ccco4)c3nc12 | inconclusive [inhibitor, partial curve] | –
59 | CCOc1cc(N(CC)CC)ccc1/C=C(/C#N)c1nc2ccccc2[nH]1 | – | inactive: -9.58%
60 | C(=C\c1ccco1)/C=N/n1cnnc1 | active: 31.6 µM | –
61 | O=C(c1ccc(-c2ccc(Cl)cc2)o1)N1CCN(c2ccc([N+](=O)[O-])cc2Cl)CC1 | – | inactive: -15.9%
62 | N=c1c(C(=O)NCc2ccco2)cc2c(=O)n3ccccc3nc2n1Cc1ccccc1 | inconclusive [inhibitor, single point] | –
63 | CCOC(=O)C1CCN(C(=O)c2cc3cc4cc(OC)ccc4nc3o2)CC1 | inconclusive [inhibitor, partial curve] | –
64 | Cc1ccc(C(=O)NC2(C(F)(F)F)NC(=O)N(c3ccc(Cl)cc3)C2=O)cc1 (stereo unspecified) | – | inactive: -7.74%
65 | Cc1ccc(O)c(-c2cc(C(F)(F)F)[nH]n2)c1 | active: 14.1 µM | –
66 | CCCNC(=O)COc1nc2ccccc2nc1N1CCOCC1 | – | inactive: -7.34%
67 | O=c1c(O)c(-c2ccccc2)oc2ccc3occc3c12 | inconclusive [inhibitor, partial curve] | –
68 | Cc1ccccc1NC(=O)c1ccc(C)c(S(=O)(=O)Nc2ccccn2)c1 | inconclusive [inhibitor, partial curve] | –
69 | CC(C)c1nnc(NC(=O)CCC(=O)NC2CCCc3ccccc32)s1 (stereo unspecified) | – | inactive: -3.92%
70 | CC1(C)CC(=O)c2sc(NC(=O)c3ccc4ncsc4c3)nc2C1 | inconclusive [inhibitor, partial curve] | –
71 | COc1ccc2cc3cc(C(=O)NCc4ccccn4)oc3nc2c1 | inconclusive [inhibitor, partial curve] | –

Reference: PubChem BioAssay AID894 (National Center for Advancing Translational Sciences (NCATS), 2007)
